The results in this text go back to the supplement of paper PMC10126150.

Sequences with one replicate were seen in a single cluster, so their values are uncertain.
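Also: ATP exposure 15 min at 22 °C before imaging.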

For this series, the system named is ATP. Put plainly: switch fluorescence ratio, 500 uM ATP over buffer (Cy3 cluster intensity, sum of 5 cycles each) (fold (ratio)); higher = stronger signal-on switching upon ATP binding; sequences stand for … in TCGTCGGCAGCGTCAGATGTGTATAAGAGACAGTTTTTTTTTTTTTTTTTTTTTTTTT…TC. As to conditions: aptamer strand: ATP DNA aptamer (quencher-CACCTGGGGGAGTATTGCGGAGGAAGG + anchor), 100 nM annealed; ATP concentration: 500 uM; one replicate. The procedure, abridged: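 Values give the fluorescence ratio for each switch-domain sequence, averaged from per-cluster ratios of summed target-cycle to summed buffer-cycle Cy3 intensity. The Cy3-labelled switching-strand clusters sat on a modified Illumina MiSeq flow-cell, were annealed to 100 nM quencher-labelled ATP aptamer, and were imaged in selection buffer, then after 15 min with 500 uM ATP at 22 °C. Five cycles ran with NaOH stripping and re-annealing between them, and clusters outside 100-1000 RFU were excluded.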
Regarding GTTATGCCCA, the switch fluorescence ratio amounted to 1.01.

AGGTGATGTC: the switch fluorescence ratio was found to be 1.18.

Consider CGTTGTATCG, for which the switch fluorescence ratio was 0.99. For TACGGTTGGG the value was 0.997; for ATAGCCTGAG, 1.13.

As for CGCTAATGAG, the switch fluorescence ratio was found to be 1.11. The result for TTCATCTAAT reads 0.987. TGCGGAAACT: the switch fluorescence ratio was 1.01.

On to AATCATAAAA, for which the switch fluorescence ratio came to 0.987. The result for AACGTGGGAT reads 0.923. The result for TGCCTTGTCC reads 0.993.

On to TAAGGTCCAA, for which the switch fluorescence ratio amounted to 0.995.

As to AACCTGTTCC, the switch fluorescence ratio was 1.83. The result for TCTTTGAACT reads 0.985. For CGTCGGACCT the value was 0.989; for GCCTACGAGT, 1.05. GGTGTCATAC: the switch fluorescence ratio amounted to 1.07. For ATTCCACACA the value was 1.08; for AACGGGGGTT, 1.35; for TCTTGAACTA, 0.971. For CTTAACGCCA the value was 1.08; for GATGTCTACT, 0.997; for TCAGTAGGGT, 0.987. As for GACTTGGGCC, the switch fluorescence ratio came out at 1.03.

For the sequence AACTTTGTCC, the switch fluorescence ratio was 1.03. For AAAGGCCCTC the value was 1; for GCGCGGTATC, 1.1. The result for ACGACCAGTC reads 1.19. For AAATGGCCCG the value was 0.98.

Consider TTTGAGGTTG, for which the switch fluorescence ratio was found to be 1.01. The result for GATATCGGCA reads 1.01; that for TAACCGTTGA, 1.02; that for GATGGCGATG, 1.05. For GGTGTTTTAA the value was 1.01.

With AGTCTCACTT, the switch fluorescence ratio came out at 0.992. The result for TCTGACGCGG reads 1.31; that for CCGATGACTT, 1.2; that for AACTGGTTAC, 1.01.

On to GCCCCCAGTC, for which the switch fluorescence ratio is 1.27. The result for CGTGTCCCTC reads 1.01; that for TGCTTGTTGC, 1.01. Turning to GACGGACGG, the switch fluorescence ratio amounted to 1.09. For GCCGACGCGC the value was 1.5; for GCGAATGGGT, 0.952. For TCTCGCGGTG the value was 1.04; for TGATGCGTCG, 0.951; for CTCCAAATTG, 1.29. The result for ACTACAACAT reads 1.11; that for CAATCGATGC, 0.969.

ACACTTTGTT: the switch fluorescence ratio was found to be 0.997. The result for ATATCCATGC reads 1.05. The result for ACCGTGCTTG reads 1.04; that for GCGGTGTATC, 1.06. Turning to TTTACCCCAC, the switch fluorescence ratio was determined as 1.39. The result for CTCTGTTGTC reads 1.02.

In the case of TAGACGAATA, the switch fluorescence ratio stood at 1.35. For AAGGCAGGGA the value was 1.03; for GCACGGATTT, 1.1. The result for CTAAATTGCT reads 0.986; that for TAAAAAGAGG, 0.984. For CAAACTAATT, the switch fluorescence ratio was found to be 0.96.

As for GGCATCTTGT, the switch fluorescence ratio came out at 0.987. The result for GGGATCTCGC reads 1.03; that for AAACAATCTC, 1.05; that for TGTTGGCTGC, 0.968. For ACTTTATAGT, the switch fluorescence ratio amounted to 1.05. The result for CTTTCTGTAA reads 1.06; that for CGGCTTGCCT, 1.02. For CATTCGCCCT the value was 1.43. The result for TGCACAGAGG reads 1.04; that for CTGGCGCCCG, 0.993; that for GGGGCCTTCT, 0.954. For GGGAACCTCG, the switch fluorescence ratio is 1. The result for TTCCTCTTGA reads 0.975. On to TCCGTAGTTA, for which the switch fluorescence ratio amounted to 5.48. Regarding ATACTAAAAT, the switch fluorescence ratio was 1.04. For ACCGAAAACG the value was 1.12; for TCGTAATGG, 1.46; for TAGCTTCGAG, 1.04. The result for CACGTTTAAA reads 1.01; that for TGTGATAAAG, 0.996. The result for GCTATGAGCG reads 1.03. For TTAGTTGTCT, the switch fluorescence ratio is 0.974. For AAGGATTCGT the value was 0.97; for TACGACACAA, 2.42; for CTTTTGATTG, 1.01. For ACCCTCTTGC the value was 1.08. On to GGAGCTACGA, for which the switch fluorescence ratio worked out at 1.31.

As for TGGTCCCGGT, the switch fluorescence ratio stood at 0.983. For CCGGCGTCGG the value was 1.06; for CGGGATACAG, 1.04. For AGCAGTTGC the value was 1.02; for TGCCCGACGA, 1.16; for AGTAGCATGG, 1.03. For CTGAACATAA the value was 1.03; for ATTAACACTG, 1.2. As for ATTGGTTACC, the switch fluorescence ratio amounted to 1.02. The result for TAGGGTCCTG reads 1.04; that for CGATGTTTGA, 1.03; that for AGGCAATATA, 1.19. For CAAGCTGACC the value was 1.16; for TCCATAGTTC, 1.05. For ACGGGGACAT the value was 1.07; for TTATAGTCTG, 0.999; for CATTATAAGT, 0.987. On to AAACATCAG, for which the switch fluorescence ratio is 0.986.

For the sequence AGCAAAGTAG, the switch fluorescence ratio came out at 1.02. For GAGGGTCAGT the value was 0.959; for AGTGTAACTG, 1.01; for CCTCAGGTAA, 2.92. For TTAGCGAGAA the value was 1.13; for ACGGCACATA, 1.53; for CGGTGAGCTT, 1.01.

On to TGAGTAAAGT, for which the switch fluorescence ratio stood at 1.04. For TAGGCATGGT the value was 0.999. For CTTTGAGGAG the value was 0.975; for ACATTGGACC, 1.05; for CGCGTCGGG, 1.01. The result for CGGTGTGATC reads 1.04. For the sequence TCCAGTTTC, the switch fluorescence ratio amounted to 1.02.
